The full ranking holds about 33,000 sequences; the median of “E-score (-0.5 to 0.5)” is about -0.041, and the highest 2% start at about 0.37. The list shows a part of the results.
Biological target: T1, Ecm22 (UniProt Q05958)
T1 sequence: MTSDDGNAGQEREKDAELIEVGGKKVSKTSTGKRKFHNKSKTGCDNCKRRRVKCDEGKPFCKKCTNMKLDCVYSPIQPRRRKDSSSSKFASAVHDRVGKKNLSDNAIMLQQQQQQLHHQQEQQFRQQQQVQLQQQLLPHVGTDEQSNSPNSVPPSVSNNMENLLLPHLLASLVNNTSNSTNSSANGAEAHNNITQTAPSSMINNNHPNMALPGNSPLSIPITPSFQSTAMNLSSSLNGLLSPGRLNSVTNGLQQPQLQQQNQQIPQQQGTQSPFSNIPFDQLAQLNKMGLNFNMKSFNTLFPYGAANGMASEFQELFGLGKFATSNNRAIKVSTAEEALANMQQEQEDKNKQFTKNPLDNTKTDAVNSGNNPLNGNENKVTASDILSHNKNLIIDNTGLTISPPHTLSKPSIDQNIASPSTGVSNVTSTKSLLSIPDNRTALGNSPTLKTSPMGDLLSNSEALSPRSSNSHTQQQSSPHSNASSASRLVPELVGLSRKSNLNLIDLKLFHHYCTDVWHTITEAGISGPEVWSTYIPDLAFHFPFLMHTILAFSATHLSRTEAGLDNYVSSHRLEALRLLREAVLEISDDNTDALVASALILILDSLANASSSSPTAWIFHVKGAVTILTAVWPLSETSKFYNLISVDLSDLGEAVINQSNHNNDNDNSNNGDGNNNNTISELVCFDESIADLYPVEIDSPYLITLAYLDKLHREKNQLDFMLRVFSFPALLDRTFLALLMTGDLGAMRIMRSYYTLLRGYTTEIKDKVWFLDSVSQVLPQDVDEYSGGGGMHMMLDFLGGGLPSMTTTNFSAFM
Test: PBM E-score (8-mer binding enrichment) (E-score (-0.5 to 0.5)); higher = stronger / more preferred TF binding; most listed sequences are background and not binding sites
Details: protein concentration: 200 nM; construct: GST-full length
Protocol: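 Universal 'all 10-mer' protein binding microarrays (Agilent AMADID 015681) probed with GST-tagged S. cerevisiae TFs (full-length or DBD) made by in vitro transcription/translation (PURExpress), about 100-200 nM. Bound TF was detected with fluorescent anti-GST. Each ungapped 8-mer (which stands for itself and its reverse complement) is scored by the PBM enrichment score (E-score), a modified Wilcoxon-Mann-Whitney statistic from -0.5 to +0.5, computed with the Universal PBM Analysis Suite. Scale: above 0.35 generally sequence-specific binding.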

Compared with TCCTTCAA, TCCATCCA is higher in “PBM E-score” value: -0.225 for the first, -0.186 for the second.

Compared with AGCTACGA, CATTCTCC is lower in “PBM E-score” value: 0.394 for the first, -0.146 for the second.

Going from CGATTTTC to ACGCGTCG, the “PBM E-score” value rises from 0.125 to 0.32.

Compared with CGCGTGTA, CCTAGTCC is lower in “PBM E-score” value: -0.0126 for the first, -0.312 for the second.

Going from TCTGTACA to AGATCTGA, the “PBM E-score” value falls from 0.0389 to -0.159.

Going from ACGTAAAG to AGTATTGA, the “PBM E-score” value falls from 0.241 to -0.0595.

Compared with CCTCTGCG, AAACGACA is higher in “PBM E-score” value: 0.007 for the first, 0.467 for the second.

Compared with CGAATTGA, GATTGCAC is lower in “PBM E-score” value: 0.00662 for the first, -0.0792 for the second.

Compared with CTCCACCC, AAGGAACT is higher in “PBM E-score” value: -0.126 for the first, -0.0399 for the second.

Going from ACATATAG to TGTGAAAA, the “PBM E-score” value falls from 0.0136 to -0.186.

First: GATCAGGA
Second: GATAGATA
The “PBM E-score” value of the first is lower: -0.069 for the first, 0.0468 for the second.

Going from ACAGGACT to AAGATGGT, the “PBM E-score” value rises from -0.191 to -0.101.

First: ATTGACTC
Second: ATGTTCGA
The “PBM E-score” value of the first is lower: -0.0667 for the first, 0.0458 for the second.

Going from GTCAGGGA to TACGGATA, the “PBM E-score” value rises from -0.19 to 0.284.

Going from AGCATAAC to GCTCGGTA, the “PBM E-score” value rises from 0.0747 to 0.248.

Compared with CGACTGGC, ATACAAGC is lower in “PBM E-score” value: 0.0893 for the first, 0.00134 for the second.

Going from ACTTTATA to CAGGGTGG, the “PBM E-score” value falls from 0.115 to -0.174.

Compared with CTGTTGAC, ACATGTGA is lower in “PBM E-score” value: -0.0959 for the first, -0.18 for the second.

Compared with ACGTCCTC, AGATACGC is higher in “PBM E-score” value: -0.121 for the first, 0.196 for the second.

Going from CAAAATAA to ATCTGAGA, the “PBM E-score” value falls from -0.041 to -0.0964.

Compared with CACATATC, GATGACCA is lower in “PBM E-score” value: -0.155 for the first, -0.173 for the second.

Going from ATTCTACC to GATCATAC, the “PBM E-score” value rises from -0.12 to 0.189.

First: AGGAATGG
Second: AGACTTCC
The “PBM E-score” value of the first is higher: -0.0846 for the first, -0.194 for the second.

Compared with AATACACC, CGACCTAG is lower in “PBM E-score” value: 0.0737 for the first, 0.0727 for the second.

Going from GCGCTTCC to GCTTGAAA, the “PBM E-score” value falls from 0.0166 to -0.171.

Going from ATAACGTC to TCGCTTCA, the “PBM E-score” value rises from -0.00491 to 0.0662.

Compared with GCCCCAAA, GGCAGACA is higher in “PBM E-score” value: 0.00296 for the first, 0.0507 for the second.

Compared with CTTTGTCA, ACCGCAAG is higher in “PBM E-score” value: -0.156 for the first, 0.0466 for the second.

Compared with CCTCGATA, AGTCTGGA is lower in “PBM E-score” value: 0.0197 for the first, -0.108 for the second.

Going from GCTTCCTA to AACAAACG, the “PBM E-score” value rises from -0.0356 to 0.316.

First: GCGGTCCC
Second: TCTCTACA
The “PBM E-score” value of the first is higher: 0.00111 for the first, -0.132 for the second.

Going from AGGCACGA to TTAGGGAA, the “PBM E-score” value falls from 0.0187 to -0.0515.

Going from CAGAGAAC to ATGAAAGC, the “PBM E-score” value rises from -0.0947 to 0.012.

Compared with CACGCCTA, CCTAGAGC is lower in “PBM E-score” value: -0.135 for the first, -0.274 for the second.

Going from CGGATTAC to CGTTGGAG, the “PBM E-score” value falls from 0.035 to -0.14.

First: GTTTCACA
Second: GGCTTTCA
The “PBM E-score” value of the first is higher: 0.0248 for the first, 0.0111 for the second.

Compared with ACGTGCCC, GACTGCCA is lower in “PBM E-score” value: 0.0357 for the first, -0.0313 for the second.

Going from GCCGCCCA to AATGAAGG, the “PBM E-score” value rises from -0.0582 to 0.0103.

Going from AGTCAAAG to ACGCACAA, the “PBM E-score” value rises from -0.0501 to -0.0159.

Compared with ACAGTTTA, GAGCACCC is higher in “PBM E-score” value: -0.0338 for the first, -0.027 for the second.

Compared with CAAGTCAC, GGGGATAC is higher in “PBM E-score” value: -0.116 for the first, -0.0258 for the second.

Compared with CAGATTTC, GCGCACAC is lower in “PBM E-score” value: -0.00105 for the first, -0.264 for the second.

Going from CGCAACGC to CTTCCCAC, the “PBM E-score” value falls from 0.0974 to 0.00615.

Compared with GCAACCAA, AGAACTAA is higher in “PBM E-score” value: -0.202 for the first, -0.0584 for the second.

Going from GGAACACC to TCAACGCA, the “PBM E-score” value rises from -0.163 to 0.0682.

Going from GACCCTCC to ATCGACGG, the “PBM E-score” value falls from 0.00379 to -0.137.

Compared with GACGGTGA, CGTAGAGC is higher in “PBM E-score” value: -0.144 for the first, 0.179 for the second.

Compared with CCATTCGA, CTCCGAGC is higher in “PBM E-score” value: -0.0965 for the first, 0.0444 for the second.

Going from CATAATTA to AAGATGTA, the “PBM E-score” value falls from 0.0847 to 0.00374.

First: ACCCTAAT
Second: ACGGGTTC
The “PBM E-score” value of the first is lower: -0.151 for the first, 0.0509 for the second.

First: GGCTCTAC
Second: TAAGACAA
The “PBM E-score” value of the first is higher: 0.0149 for the first, -0.0947 for the second.

First: CCGCCGCA
Second: CCCGGATA
The “PBM E-score” value of the first is higher: 0.0487 for the first, 0.0413 for the second.

Compared with CTCTCATC, CGTCCACA is lower in “PBM E-score” value: -0.0888 for the first, -0.222 for the second.

First: CGGATCAA
Second: CGGACACC
The “PBM E-score” value of the first is higher: 0.075 for the first, 0.00732 for the second.

First: GTCCGACA
Second: GGGCGTTA
The “PBM E-score” value of the first is higher: 0.0997 for the first, 0.0866 for the second.

First: AGCGGAGC
Second: TAGTCTGA
The “PBM E-score” value of the first is higher: 0.111 for the first, -0.119 for the second.

Going from ACACCGAC to ATGATTTA, the “PBM E-score” value rises from -0.0448 to 0.0824.

Going from CATCGGGA to GGCAAATA, the “PBM E-score” value falls from 0.0161 to 0.0111.

First: CAGGAGGG
Second: GTCCCATA
The “PBM E-score” value of the first is lower: -0.302 for the first, 0.00889 for the second.

Compared with GTAAGAAC, CTCGTAAC is higher in “PBM E-score” value: 0.183 for the first, 0.428 for the second.

Compared with ACAAACCT, AATTTCAA is higher in “PBM E-score” value: -0.161 for the first, -0.13 for the second.

Going from CCATCAGG to TATCACGA, the “PBM E-score” value rises from -0.17 to 0.131.

Compared with ATATAAGG, AACCTTCT is lower in “PBM E-score” value: -0.0925 for the first, -0.217 for the second.

Going from CGGGCACG to GTAATATA, the “PBM E-score” value rises from -0.149 to 0.227.

First: ACTGGGCA
Second: ACGTCGCA
The “PBM E-score” value of the first is lower: -0.12 for the first, 0.202 for the second.

First: GTATGCTA
Second: CACCACAA
The “PBM E-score” value of the first is higher: 0.141 for the first, -0.0829 for the second.

Going from CCGCTAGG to GTGTCCCA, the “PBM E-score” value rises from -0.209 to 0.0205.

Compared with AGGTCGAG, GGAGGCAA is lower in “PBM E-score” value: -0.165 for the first, -0.183 for the second.

First: CAGCGAAC
Second: GCGCAATA
The “PBM E-score” value of the first is higher: 0.0949 for the first, 0.0797 for the second.

First: GGCACATA
Second: AGAAGGGC
The “PBM E-score” value of the first is higher: 0.00341 for the first, -0.117 for the second.

Going from ATCAGGGG to CGTTGCCA, the “PBM E-score” value rises from -0.137 to 0.253.

First: ATCGATTC
Second: GGGCTGAA
The “PBM E-score” value of the first is higher: -0.0489 for the first, -0.105 for the second.

Going from AGAGATAA to CACACACG, the “PBM E-score” value rises from -0.0829 to 0.0562.

Compared with ATCGGCTG, AACGCAGA is higher in “PBM E-score” value: -0.105 for the first, 0.0206 for the second.

Compared with AGTTTTTC, CGTGGACC is lower in “PBM E-score” value: 0.00828 for the first, -0.108 for the second.

First: TCGTCAGA
Second: GAGTTATA
The “PBM E-score” value of the first is lower: -0.0689 for the first, -0.0106 for the second.

Compared with AGGATAGG, GGCGAGGA is lower in “PBM E-score” value: 0.00377 for the first, -0.0667 for the second.

Compared with CCCTTTTA, CGGACTAG is higher in “PBM E-score” value: -0.255 for the first, -0.0708 for the second.

First: GCCATACC
Second: ATGTGGTA
The “PBM E-score” value of the first is lower: -0.175 for the first, -0.0336 for the second.

Compared with CGTTAGAG, GCGAGAGA is higher in “PBM E-score” value: 0.0242 for the first, 0.125 for the second.

First: ACTGATCT
Second: GAGGACAC
The “PBM E-score” value of the first is higher: 0.0127 for the first, -0.0953 for the second.

ACCTCCAC and GCGGCAAC are the same in “PBM E-score” value: -0.141 for the first, -0.141 for the second.

Compared with ACATGCGA, GCTATCCA is lower in “PBM E-score” value: 0.142 for the first, 0.00421 for the second.

First: ATTCTTAA
Second: CCGGGAAC
The “PBM E-score” value of the first is lower: 0.0259 for the first, 0.171 for the second.

Compared with ATCGGGTC, CAGCACTC is lower in “PBM E-score” value: 0.174 for the first, -0.0915 for the second.

Compared with GCGACACC, GATTTTGC is higher in “PBM E-score” value: -0.0222 for the first, -0.0105 for the second.

From the supplement of paper PMC3334620
